From PubChem BioAssay AID1347073 (National Center for Advancing Translational Sciences (NCATS), 2019)
The campaign covered roughly 45,000 compounds. About 200 (0.44%) were called active. About 7% were inconclusive and are not listed. Calls come from the whole dose curve; as a rule, active = well fitted activation curve with a large enough effect; inconclusive = small, poorly fitted or top-dose-only effect; inactive = no such curve, though single readings can be large or run the other way. The list shows a part of the results.

Assay: qHTS of TDP-43 Inhibitors: NCGC Sytravon Library Screen; note: nearly all actives have a fitted effect of over 55% in size; for growth rescue (activation): 0% is about no effect
Conditions: yeast TDP-43 toxicity rescue, BacTiter-Glo growth, 24 h; series mostly up to 46.1 µM; growth rescue (activation): at the top concentration
In short: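 TDP-43-expressing yeast, pregrown in raffinose, seeded at OD600 0.02 in galactose medium with compound for 24 hr at 30 deg C. Growth read by BacTiter-Glo luminescence, so rescue of toxicity appears as activation.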
Potency is the fitted concentration of half-maximal effect.

Structure (SMILES) | growth rescue (activation) | Potency
CN(CC(=O)Nc1cccc(S(=O)(=O)N2CCCC2)c1)Cc1ccccc1 | inactive: 29.7% | –
COc1ccc(OC)c(C(C(=O)NC2CCCCC2)N(C(=O)c2ccccn2)c2cccnc2)c1 (stereo unspecified) | inactive: -1.45% | –
O=C(Nc1ccccc1F)N(Cc1ccc(F)cc1)Cc1nc2ccccc2c(=O)[nH]1 | inactive: -9.99% | –
O=c1c2cnn(-c3ccccc3)c2ncn1Cc1ccccn1 | inactive: 24.8% | –
Cc1ccc(NC(=O)c2ccc(Br)o2)c([N+](=O)[O-])c1 | inactive: -2.03% | –
O=C(COC(=O)c1ccccc1OCc1ccc(Cl)cc1)NCC1CCCO1 (stereo unspecified) | inactive: 18.1% | –
Cc1ccccc1NC(=O)Nc1cccs1 | inactive: 17.7% | –
CCCCN(C)C(=O)Cn1cnc2sc(C)c(S(=O)(=O)N3CCN(c4ccccc4OC)CC3)c2c1=O | inactive: -3.19% | –
CCn1nnc(NC(=O)c2c(OC)cccc2OC)n1 | inactive: 25.8% | –
Cc1ccc(OCC(=O)N(Cc2sccc2C)C2CCS(=O)(=O)C2)cc1 (stereo unspecified) | inactive: 7.26% | –
COc1ccc(-c2csc(C3=C(O)CN(Cc4ccc(S(N)(=O)=O)cc4)C3=N)n2)cc1OC | inactive: 20.1% | –
COc1ccc(/C=C/C(=O)c2ccc(O)cc2)cc1CN1CCOCC1 | inactive: -14.6% | –
COc1ccc(CCN2CC(C(=O)NCC3(O)CCCCC3)CCC2=O)cc1 (stereo unspecified) | inactive: 6.21% | –
O=C(COC(=O)CC(c1ccccc1)c1ccccc1)Nc1cccc(F)c1 | inactive: 22.7% | –
NS(=O)(=O)c1ccc(CCNC(=O)COC(=O)CCc2ccccc2)cc1 | inactive: 10.3% | –
CCCCn1c(=O)c(CCC(=O)OCC(=O)NC(=O)NCCOC)nc2ccccc21 | inactive: 12.6% | –
CCN(c1ccccc1)S(=O)(=O)c1ccc(OC)c(NC(=O)c2c(C)noc2C)c1 | inactive: 10.7% | –
CC(=O)Nc1ccc(SCC(=O)OCC(=O)NC(=O)NCCC(C)C)cc1 | inactive: -2.36% | –
CC(C)CCNC(=O)C(=O)NC1CCCC1 | inactive: -10.6% | –
CC1=C(C(=O)OCc2ccccc2)C(/C=C/c2ccccc2)NC(=S)N1 (stereo unspecified) | inactive: -3.95% | –
O=C(O)c1ccc2nc(-c3ccco3)c(-c3ccco3)nc2c1 | inactive: 11% | –
CC(C)(CN1CCN(c2ccccc2)CC1)NS(=O)(=O)c1ccccc1 | inactive: 13.1% | –

Structure (SMILES) | growth rescue (activation) | Potency
CCC(C)C(NS(=O)(=O)c1ccc(C)cc1)C(=O)O (stereo unspecified) | inactive: 9.27% | –
CC(=O)c1ccc(Sc2nnnn2-c2ccccc2)c([N+](=O)[O-])c1 | – | active: 20 µM
CCCCC(=O)N(C)c1c(CC)nc2c(OCCC3CCCCC3)cccn12 | inactive: -6.22% | –
CCc1ccc(NC(=O)C2CCCN2C(=O)NC2CCCCC2)cc1 (stereo unspecified) | inactive: -12.2% | –
CC(CCc1ccc(O)cc1)NC1C2CC3CC(C2)CC1C3 (stereo unspecified) | inactive: 0.149% | –
COc1ccc(/C=C(/NC(=O)c2ccccc2)C(=O)N2CCC(C)CC2)cc1 | inactive: 1.72% | –
N#C/C(=C\c1ccc(-c2ccccc2Cl)o1)C(=O)Nc1nc2ccccc2s1 | inactive: 2.95% | –
CC(C)Cn1c(-c2cc(Br)ccc2F)nc2c1c(=O)[nH]c(=O)n2CC(C)C | inactive: 9.71% | –
CCCn1c(N2CCN(C(=O)/C=C/C(=O)O)CC2)nc2ccccc21 | inactive: 4.05% | –
Cn1c(-c2sc3cc(C(F)(F)F)cnc3c2-c2ccccn2)n[nH]c1=S | inactive: -0.821% | –
O=C(COc1ccc(/C=N/NC(=O)c2ccccc2O)cc1)Nc1ccccc1 | inactive: -0.0156% | –
CC(=O)c1ccc(NC(=O)CC23CC4CC(C2)CC(n2nnc(C)n2)(C4)C3)cc1 | inactive: -1.39% | –
O=C(NCCNC(=O)c1ccco1)c1ccc(Cl)c(Cl)c1 | inactive: 12.2% | –
COc1ccc2oc(=Nc3ccc(C(=O)O)cc3)c(C(=O)NCc3ccco3)cc2c1 | inactive: 0.24% | –
CCCNC(=O)C1(C)CCCN(C(=O)c2ccc(OC(F)F)cc2)C1 (stereo unspecified) | inactive: 2.55% | –
CC1CCN(C(=O)CN(c2ccccc2)S(=O)(=O)N(C)C)CC1 | inactive: 16.9% | –
CN(C(=S)NC1CCCCC1)C1(c2ccccc2Cl)CCCCC1=O (stereo unspecified) | inactive: 5.09% | –
Nc1cc(C(=O)OCC(=O)NCc2ccc(F)cc2)ccc1Cl | inactive: 1.3% | –
Cc1[nH]c2ccccc2c1C(=O)COC(=O)c1c(-c2ccccc2Cl)noc1C | inactive: 24.8% | –
CC(C)(C)C(=O)COC(=O)c1ccc(N)c([N+](=O)[O-])c1 | inactive: 15.3% | –
CC(Sc1nc2c(c(=O)[nH]1)CCCC2)C(=O)Nc1ccc(Br)cn1 (stereo unspecified) | inactive: 7.85% | –
CC1(C(=O)NS(=O)(=O)c2ccc(Cl)cc2)CCN1C(=O)Cc1ccccc1 (stereo unspecified) | inactive: 9.36% | –

Structure (SMILES) | growth rescue (activation) | Potency
Cc1cc(CN(C)C)c(O)c(C2(C)CCCCC2)c1 | inactive: 11.9% | –
COc1ccccc1N(C)S(=O)(=O)c1ccc(C(=O)Nc2ccc(C)cc2C)cc1 | inactive: 15% | –
CSc1ccccc1NC(=S)Nc1ccc(S(N)(=O)=O)cc1 | inactive: 13.6% | –
O=C(N/N=C/c1c(O)ccc2ccccc12)c1ccc[n+](CCO)c1 | inactive: -23.1% | –
COc1ccc(-c2n[nH]c(=S)n2-c2ccc3c(c2)OCCO3)cc1OC | inactive: 1.93% | –
CC(=O)c1cccc(NS(=O)(=O)c2c(C)noc2C)c1 | inactive: 27.2% | –
CCCCN(C)CCN1C(=O)C2C(C(=O)Nc3ccc(Cl)cc3)C3C=CC2(O3)C1C(=O)NC1CCCCC1 (stereo unspecified) | inactive: 14.1% | –
COc1ccc(OCCCC(=O)Nc2cccc([N+](=O)[O-])c2C)cc1 | inactive: 22% | –
CN1CCN(C(=O)c2cc(=O)c3cc(Cl)cc(Cl)c3o2)CC1 | inactive: 10.6% | –
COc1ccc(OCc2nnc(SCC(=O)N3CCCC3)o2)cc1 | inactive: 17.6% | –
O=[N+]([O-])c1ccc2nc(CN3CCCCC3)[nH]c2c1 | inactive: 2.39% | –
COc1cc(NC(=S)N2CCN(c3ccccn3)CC2)cc(OC)c1 | inactive: 5.48% | –
Cc1ccccc1-n1c(SCC(=O)N/N=C/C=C/c2ccccc2[N+](=O)[O-])nc2ccccc2c1=O | inactive: -5.54% | –
O=C(C1=C(O)C(=O)N(c2nccs2)C1c1ccccc1)c1cc2ccccc2o1 (stereo unspecified) | inactive: 1.54% | –
Cc1ccc(NC(=S)N2C3CCCC2CC(NC(=O)C2CC2)C3)cc1C (stereo unspecified) | inactive: 0.758% | –
O=[N+]([O-])c1cccc(-c2nnc(SCc3cccnc3)o2)c1 | inactive: 22.8% | –
CCCC(=O)N1CCCC1(C)C(=O)Nc1ccc2c(c1)CCN2C(C)=O (stereo unspecified) | inactive: 8.34% | –
O=C(N/N=C/c1ccc2cccnc2c1)c1ccco1 | inactive: 3.89% | –
CCOc1ncccc1C(=O)OCC(=O)NC1CC1 | inactive: 13.7% | –
N#Cc1c(Nc2ccccc2)c(/C=N/NCCO)c[nH]c1=O | inactive: 10.6% | –
Cc1cc(C)n2nc(SCC(=O)N3CCC(C(=O)O)CC3)nc2n1 | inactive: 2.03% | –
COc1cc(/C=C(\C#N)C(=O)Nc2cccc(C(=O)O)c2)ccc1OCc1ccc(F)cc1 | inactive: 12.7% | –

Structure (SMILES) | growth rescue (activation) | Potency
O=C(Nc1ccc(O)cc1)c1cccc(Oc2ccc([N+](=O)[O-])cc2)c1 | inactive: 34.4% | –
Cc1n[nH]c(C)c1CCC(=O)N/N=C/c1cccs1 | inactive: 1.34% | –
C=CCN1C(=O)C2C(C(=O)NC3CCCC3)C3C=CC2(O3)C1C(=O)NC1CCCC1 (stereo unspecified) | inactive: 10.9% | –
CC(=O)NC(CC(=O)Nc1cccc(S(=O)(=O)N2CCCCC2)c1)c1ccccc1 (stereo unspecified) | inactive: 2% | –
O=C(NCC(F)(F)F)c1ccc(S(=O)(=O)Nc2ccccc2N2CCCC2)cc1 | inactive: 4.12% | –
CCC(=O)NC(=S)Nc1ccc(N2CCOCC2)cc1 | inactive: 9.61% | –
COc1ccc(/C=N/NC(=O)c2cc(=O)[nH]c3ccccc23)cc1OC | inactive: -6.06% | –
CCCn1c(SCC(N)=O)nc2c(c1=O)C1(CCCC1)Cc1ccccc1-2 | inactive: 28.8% | –
CC1CCN(Cc2c(C(=O)N/N=C/c3ccc(C(F)(F)F)cc3)nnn2-c2nonc2N)CC1 | inactive: 6.25% | –
CCOC(=O)Cn1nnnc1C(CC)N(Cc1cc2ccc(C)cc2[nH]c1=O)C1CCCC1 (stereo unspecified) | inactive: 13.8% | –
Cc1ccc(NC(=O)C(=O)Nc2ccc(C)cn2)nc1 | inactive: -9.25% | –
CC1=NN(C(=O)c2ccco2)C(O)(c2ccccc2)C1 (stereo unspecified) | inactive: 10.7% | –
COc1ccccc1N(C)S(=O)(=O)c1ccc(C(=O)OCC(=O)Nc2cc(C)on2)cc1 | inactive: 5.9% | –
Nc1ccccc1C(=O)Nc1nccs1 | inactive: 11.3% | –
O=C(COC(=O)c1ccc(S(=O)(=O)NCc2ccco2)cc1)NCc1ccccc1 | inactive: 4.65% | –
O=C(NCCc1nc2ccccc2[nH]1)c1ccc(Br)o1 | inactive: -4.54% | –
Cc1ccc(-c2nnc(SCC(=O)NC(=O)Nc3ccc(C)cc3C)n2N)cc1 | inactive: -2.01% | –
CCN(CC(=O)NCc1ccc(F)cc1)C(=O)/C=C/c1ccc(OC)c(S(=O)(=O)NC(C)C)c1 | inactive: -18.8% | –
COC(=O)[C@H](CC(C)C)NC(=O)N1CCCCC1 | inactive: 4.18% | –
CCC(C)(C)C(=O)Nc1cccc(Cl)c1C | inactive: 20.5% | –
Cc1ccccc1OCC(=O)Nc1nnc(-c2ccncc2)s1 | inactive: 3.78% | –
CCOC1(OCC)N=C(N)C2(C#N)C(c3cccc(OC)c3OC)C12C#N (stereo unspecified) | inactive: -15.7% | –

Structure (SMILES) | growth rescue (activation) | Potency
COC(CNc1nc(SC)nc2sc3c(c12)CCN(C)C3)OC | inactive: -5.36% | –
Cc1ccc(C(C(=O)NC(C)(C)C)N(CC2CCCO2)C(=O)c2csnn2)cc1 (stereo unspecified) | inactive: -12.9% | –
c1ccc2c(c1)OCCOCCOCCO2 | inactive: 20.9% | –
Cc1ccc(C(NC(=O)C2CCN(CCOc3ccc(Cl)cc3Cl)CC2)c2ccccn2)cc1 (stereo unspecified) | inactive: -5.53% | –
C=CCSc1nc(C)c(CC(=O)OCC(C)C)c(=O)[nH]1 | inactive: -18% | –
Fc1cccc(-n2ncc3c2ncn2nc(-c4ccccc4Cl)nc32)c1 | inactive: 11.8% | –
O=C(Nc1ccon1)c1ccc(F)c(S(=O)(=O)N2CCCCC2)c1 | inactive: 6.93% | –
CC(=O)c1cc(-c2ccccc2)n(CC(=O)Nc2cc(C)cc(C)c2)c1C | inactive: 1.38% | –
O=C(Oc1ccc(Br)cc1)C1CCN(C2=NS(=O)(=O)c3ccccc32)CC1 | inactive: 22% | –
C=CCc1ccc(OCCCCNC2CCCC2)c(OC)c1 | inactive: -10.2% | –
COc1ccccc1N1CCN(C(=O)c2cc(-c3ccccc3O)on2)CC1 | inactive: -4.77% | –
CC(=O)OCc1cc2cc(C)ccc2[nH]c1=O | inactive: -2.21% | –
Cn1c(O)c(N=NC(=O)Cn2ccc(C(F)(F)F)n2)c2ccccc21 | inactive: 6.28% | –
COc1cc2c(cc1OC)C(C(=O)Nc1ccc3c(c1)OCCO3)C(c1cccnc1)N(C)C2=O (stereo unspecified) | inactive: -6.84% | –
Cc1ccc(S(=O)(=O)N(Cc2cc3ccccc3[nH]c2=O)CC2CCCO2)cc1 (stereo unspecified) | inactive: -6.81% | –
O=C(COC(=O)COc1ccc(Cl)cc1)NCCCc1ccccc1 | inactive: -8.7% | –
COc1ccc(CCNC(=O)c2ccc3c(c2)N(Cc2ccc(F)cc2)CCS3)cc1OC | inactive: -1.41% | –
Cc1ccccc1NS(=O)(=O)c1ccc(OCC(=O)NCc2ccccn2)cc1 | inactive: 2.28% | –
